Measured values published in PMC6919601, “Identification of Plasmodium dipeptidyl aminopeptidase allosteric inhibitors by high throughput screening” (PLoS ONE, 2019).
Hit rate of the full screen: of about 110,000 compounds, about 230 (0.21%) showed an effect of 50% or more. The list shows a part of the results.

Target: DPAP1 (Plasmodium falciparum, UniProt Q8IIJ9)
Test: primary screen, percent inhibition; read by cleavage of a fluorogenic dipeptide substrate; higher = more effect of the substance
Design: species or system P. falciparum D10 trophozoite lysates; single well
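Further: 30 min substrate incubation versus DMSO and 10 µM JCP410 controls.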

DPAP1, sequence (Q8IIJ9 whole entry, looked up): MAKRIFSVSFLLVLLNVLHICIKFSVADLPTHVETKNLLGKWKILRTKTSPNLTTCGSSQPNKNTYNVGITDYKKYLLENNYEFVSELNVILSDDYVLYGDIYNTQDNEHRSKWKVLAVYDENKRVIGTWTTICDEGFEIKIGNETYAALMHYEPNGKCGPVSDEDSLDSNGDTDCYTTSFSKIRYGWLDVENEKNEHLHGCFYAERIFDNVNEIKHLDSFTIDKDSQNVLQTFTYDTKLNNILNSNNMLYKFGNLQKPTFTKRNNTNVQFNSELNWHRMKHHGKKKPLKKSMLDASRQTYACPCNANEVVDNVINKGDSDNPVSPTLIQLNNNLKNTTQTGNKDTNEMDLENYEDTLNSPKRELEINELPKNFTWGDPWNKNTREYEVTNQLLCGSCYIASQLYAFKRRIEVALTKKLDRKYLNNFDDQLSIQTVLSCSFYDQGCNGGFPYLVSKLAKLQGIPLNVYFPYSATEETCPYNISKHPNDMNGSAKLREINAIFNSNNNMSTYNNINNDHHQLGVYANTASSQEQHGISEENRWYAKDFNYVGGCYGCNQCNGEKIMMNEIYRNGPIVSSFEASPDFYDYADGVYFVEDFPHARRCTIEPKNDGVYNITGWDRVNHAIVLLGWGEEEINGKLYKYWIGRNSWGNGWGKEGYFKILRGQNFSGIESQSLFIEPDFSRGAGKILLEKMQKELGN

Row | Compound | % Inhibition @ 10 uM [%]
1 | Fc1ccc(CN2CCN(c3ccccn3)CC2)cc1F | 1.4
2 | O=c1cc(CSc2nc3cccnc3[nH]2)nc2ccccn12 | 4.67
3 | N#CCc1ccc(-n2cnnn2)cc1 | -0.834
4 | Cc1ccc(Cc2c(C)nc3nc(SCC(=O)NCCN4CCOCC4)nn3c2C)cc1 | -3.48
5 | COC(=O)c1cc2sc(Cl)cc2n1CC(=O)NCC1CCCO1 (stereo not drawn) | -4.01
6 | C1CCC(Nc2nnnn2C2CCCCC2)CC1 | -0.239
7 | Cn1c(=O)c2c(nc3n2CCCN3C2CCCCCCC2)n(C)c1=O | 9.96
8 | Cn1c(C(=O)O)c(CNCCN2CCOCC2)c2ccccc21 | 5.09
9 | O=C(N/C(C(=O)N1CCOCC1)=C(\Sc1ncccn1)c1ccccc1)c1ccccc1 | -8.35
10 | OCC1CCCN1Cc1cccc(F)c1 (stereo not drawn) | -5.94
11 | O=C(NCCO)C(=O)NC1CCCCC1 | -1.75
12 | COc1cccc(OCCNC(=O)c2cccc3ccccc23)c1 | -9.11
13 | CCCCN1CCCC1C(=O)NCc1ccc(OC)c(OC)c1 (stereo not drawn) | 7.24
14 | Cc1cc(=O)n(C)c2c1C(=O)CC(C)(C)C2 | 0.35
15 | Cc1ccc2oc(=O)c3cnn(CC(=O)N4CC(C)CC(C)C4)c3c2c1 (stereo not drawn) | -0.0115
16 | CN(C)c1nc(N2CCOCC2)nc(N(c2ccccc2)c2ccccc2)n1 | 0.968
17 | CCN(CC)CCCNC(=O)c1ccc(CSc2nc3cccnc3n2Cc2ccccc2)cc1 | 2.72
18 | CCC(C(=O)NC1CCCC1)n1c(SCc2ccccc2F)nc2ccncc21 (stereo not drawn) | 2.65
19 | Cc1ccc2c(c1)cc1c(=O)n(CC(=O)N3CCC4(CC3)OCCO4)nc(C)n12 | -1.7
20 | Cc1cc(Cl)cc(Cl)c1OCC(=O)NCc1ccco1 | 3.04
21 | CCOc1ccc(CC(=O)NCc2cn3c(C)csc3n2)cc1 | 2.57
22 | COC(=O)c1c(NC(=O)c2oc(=O)c3ccccc3c2-c2ccccc2)sc(C)c1C | 3.76
23 | CN(C)CCCN(C(=O)CN1C(=O)c2ccccc2C1=O)c1nc2ccc(F)cc2s1 | 6.31
24 | CCN(CC)CCSc1nc2cc(OC)ccc2[nH]1 | 4.57
25 | COC(=O)C1=C(NC(=O)c2ccc(C(C)(C)C)cc2)CCS1 | -1.84
26 | CC(C)OCCCN(Cc1ccccc1F)C(=O)Nc1ccccc1 | 1.19

Row | Compound | % Inhibition @ 10 uM [%]
27 | Cc1ccc(S(=O)(=O)NNC(=S)Nc2ccccc2)cc1 | -0.744
28 | CC[C@H](NC(=O)[C@H](Cc1c(F)cccc1F)NC(=O)c1ccc(-c2cc(C(=O)O)ccc2Cl)cc1)C(=O)c1nc2ccccc2o1 | -6.56
29 | Cc1ccc(/C=C(\NC(=O)c2ccccc2)C(=O)NC2CCCCC2)o1 | -0.725
30 | Cc1c(NC(=O)NCCCN2CCOCC2)sc2nc3n(c(=O)c12)CCC(C)CC3 (stereo not drawn) | 6.35
31 | COc1ccc(NC(=O)c2cc(F)c(F)cc2Cl)cn1 | -2.5
32 | N#C/C(=C/c1ccc(N2CCOCC2)o1)C(=O)Nc1ccc(Cl)cc1 | 2.65
33 | Nc1nonc1-n1nnc(C(=O)O)c1-c1ccc2c(c1)OCO2 | 1.62
34 | COc1ccc(NC(=O)c2cnccn2)cc1 | 0.177
35 | Cc1ccc(S(=O)(=O)Nc2ccccc2C(=O)NC(C)c2ccccc2)cc1 (stereo not drawn) | -1.99
36 | CCCNS(=O)(=O)c1c(C)[nH]c(C)c1C(=O)OCC | -4.21
37 | CCCCOC(=O)C1CCCC(C)N1 (stereo not drawn) | 4.08
38 | Cc1ccc(S(=O)(=O)/N=C(/NC2CCCCC2)c2ccccc2)cc1 | -3.96
39 | COc1ccc(NC(=O)c2sc3nc4c(cc3c2N)CC(C)CC4)c(OC)c1 (stereo not drawn) | 2.82
40 | Cc1cccc(C)c1NC(=O)/C=C/C(=O)O | -2.55
41 | CC1(C)Cc2c(c(N3CCOCC3)nc3sc4c(=O)n(Cc5ccco5)cnc4c23)CO1 | 1.72
42 | CCCn1c2ccccc2c2cnn(CC(=O)N(C)CCCN(CC)CC)c(=O)c21 | 1.43
43 | COc1ccc2oc(C)c(C(=O)c3ccc(Br)cc3)c2c1 | -0.482
44 | C=Cc1ccc(Cn2c(C)c(CNCc3ccc(OCC)cc3)c(C(=O)O)c2C)cc1 | -1.92
45 | COc1ccc2nc3sc(C(=O)N4CCN(C)CC4)cc3cc2c1 | -5.06
46 | Cc1cccc(N2C(=O)C(Cl)=C(Nc3ccccc3)C2=O)c1 | 3.92
47 | O/N=C1\CC(c2ccccc2)OC12CCCCC2 (stereo not drawn) | -5.62
48 | C=Cc1ccc(Cn2c(C(=O)O)c(CNCc3ccccc3)c3ccccc32)cc1 | 4.9
49 | COc1cc(C2C(C#N)=C(N)N(c3nc[nH]n3)C3=C2C(=O)CC(C)(C)C3)ccc1OCc1ccccc1 (stereo not drawn) | -6.18
50 | COc1ccc(S(=O)(=O)c2c(C(=O)c3ccccc3)cnc3cc4c(cc23)OCCO4)cc1 | -7.13
51 | Cc1ccc(CNC(=O)c2ccc3c(O)nc4c(-c5ccccc5)nnn4c3c2)cc1 | 1.68
